29 molecules from the supplement of paper PMC12632987 can be followed below.

To fix the notation:
B1: GBRAP_52_6145 (protein)
chain: MVEELVELFLKAVEAKKAGDEEEKKKYIEEAAKLMKEMTEEEIEEAAREAVARVPKEDLDVVMEVALELGDKMEELGVDERKVAAFLGAAAAAAYEKELA
B2: GBRAP_137_3646 (protein)
chain: PNVTITKETIDDLVEINIEFDDPEKAEEAAELIRDVAHEHGALAVSIEINEDGTLEATIWVPKDKAQALIDALVTRLRTELGANVTVIDKDTGETTVVKA
B3: GBRAP_160_4431 (protein)
chain: SEKVEKAKKEIDELFDEALEMMKGQSAEQRIVVIDVTEGEVKLMLEELGLLTDEIDKVIDDTFAAIKAYVAAHPDISQEELAALLDAAAAKIKEALEKAS
B4: GBRAP_39_5631 (protein)
chain: EEEEELELLESYAEAELAKRQVETGLAPDELYARLLAEARALAADDPELLAAINRLDALAAEHGPEAREKLAAALAALLAGLPKEDILRLLNALIEELEA
B5: GBRAP_52_6159 (protein)
chain: SEERARAMADEILAAVRAGDEERLEELLRRAARELSQEELVLMMEHIAEAVAGLSPEEAERVVEAAIRFEDLAVAAGHDEELLSYQLARVAAAAYKQIQA
B6: GBRAP_14_3834 (protein)
chain: MELVERVLREAAERIARELAELAGLDYEEVLRRMREVVEEALELYRKTGNLEEALRHFEERAVRTVRELLADKPPELQAQAEAIVRVEVGEARLELEEEE
B7: GBRAP_184_5120 (protein)
chain: EVVRRAVEGEKAEELIAKAEAVVAEAAAAGKRLFLAVFAENMSVEEIIEVIKHLGELKKAHPEVEIVLVVENELSDEEIDKVVEAADEAGVRVVVAIKEE
B8: GBRAP_52_6101 (protein)
chain: AAAEAEALVERLLALVRAGREAEARAEAAALAAEMDEARLRVLTEALAARARAAAPEDLDAVWRLAELLADELEAAGWPDVLVDDLLAATAAALYERELA
B9: GBRAP_78_6656 (protein)
chain: ELEKLLDEADEKARELRKLAKKVDPELANLAAETDVLVGEAIYLYEIEKASPEEIKEELEEAKKAAEELLKLAEKKDKEVAKLAKELIKLLEKAIKELKK
B10: GBRAP_139_3751 (protein)
chain: SALEERIARARALAEQIPEDPEGSIAALADLMNSVNEEDAERIARAAAEVLRGLPFDEFEAYFDALIDTLRTKHNNEDLADIAEAEMNRALAQIAVEEEA
B11: GBRAP_11_2837 (protein)
chain: KKEKLKEIAEKAREVAKELDALIASGAPTKEELEELLKKVEELLKLAEELGDESLVKLAKIALEEVKEAIADPATQLQHLKNALAAVRVLEGQALLEYDE
B12: GBRAP_125_3042 (protein)
chain: AEEEAIEALAALAKIFGLSEEEVEELKRLAREYGVKGALIALLLAEGLEELAELAARLSEEAVREVLAEFLAWLKAHPDITREEAVEELERLLREALERE
B13: GBRAP_11_2657 (protein)
chain: KKEVYEEAAELARRAAEALERLIATGVDDEELIAEARELIERLRELAEKHLDEATRSEVEVVVELWEEFLADPANAEQLAKELLAGVRVLEGNLLLEADE
B14: GBRAP_52_6326 (protein)
chain: MEEEIKKLAEELVAAIKAGDEEEAKKLAEEAVEKLSSEGILKLAKLVAEAVAKEDYETQVRATEVFDYLAELVIEKRGDERTAAEILGIAATTFYAAEQA
B15: GBRAP_14_3852 (protein)
chain: IEELIKAVEETAKETKEMAKEVLPEHAEEVNKKIEELAKKIIKKIKEENLNKEEVAELMDEFAEELAKFIKEKGFANETEIAAIRATILNEAALKLDEIE
B16: GBRAP_52_6211 (protein)
chain: MEERLEELARAILEAVRAGDEERARRLLREVAETLDDEELERFAEVLVKLAEEARPEEFDAVFRLAELAEEVLLEEGRDEVLADDLLNRVAAALYKRELE
B17: GBRAP_43_5736 (protein)
chain: DEEVLEAAAETARLALESEELSDETKIRILKDFFEVAADNSKKNKELYKEAAEALEKSDKAEAVEKAAKLAKELAEKEPKYKETLELAAKFLEEKLKKLK
B18: GBRAP_160_4759 (protein)
chain: KEELKKLKEEIKEIFEEHKELLKEVPAAEAPTVVRDAMGEVLMEVFSSEAASEELEEKIGEIADEAEARAAANADAPVEFHIAVLEEAEKKVLELIEKEI
B19: GBRAP_128_3477 (protein)
chain: SAEELLKEAEELAEKIVEAKVEEVPALVKEFAKLLEKADPETQEKIAEILKAKIPKLSEEKLEALYDTLREQAKKANPETQAVLNEIAVEAGQQILELEE
B20: GBRAP_160_4187 (protein)
chain: SESIEELIKEIREIAEEAIKLIEGETHEERIVIVAGAFGQIILLLSENEEISDETVDEVAEIADELIEYLKANPDLTEEEIKELIREATEKIIEIIKENH
B21: GBRAP_78_6741 (protein)
chain: EVEEELDKAIEHLSKAYQLTKEFPQEDRDELTDLLVEAESYLLLAEENGYDLEELEKALEYLEKAIKLVKELNLPEAKPLLEELEKAKEYVEKAIELVKK
B22: GBRAP_11_2769 (protein)
chain: KKEKLKELAKLAEKAAEAVEKLLEEGVDNEELLKKIEELLKKIEKLTKEYGNKDMKKLVEIAKELLEKIKEDPENAEKYAEELRATLRVLSGQALLEAEE
B23: GBRAP_14_3791 (protein)
chain: MEEIRKVLEEAIEEIMALIADLPADVRAALRAALTAIAEETLARIKETGDVDEAMDEGIERAAAAAAEILAPLDPETRANAVAIVRTEWSNAAEEIDELV
B24: GBRAP_184_5038 (protein)
chain: AIKEVTIEAKDLEELKAKLAELEEEMKNFKGDLIVHVKSPKFTKEMVEELMSTLKNMLDKGYISSATVGLDGEMTEEVVDLAVKLADEAGIKVVLALDEE
B25: GBRAP_52_6064 (protein)
chain: SEKKIEEYAEKIAEAIKAGDKEKALELIKKMIKELSLEEIKETLVLAAKKVAELGEEEHELFVEVLEEAEDLLIEAGISEEDALLIVGDAEAALAKAVAA
B26: GBRAP_52_6125 (protein)
chain: MRERARELVLRMVELVKEGREEEARRLAREAVETLDDEELELVADELAELIREASPEEQEYLLRVAEILAEELERAGRDEVLADYVLARAAAALYEKEQA
B27: GBRAP_150_3887 (protein)
chain: DLETLLAIASTAKDLLEESIETGGELLEALLKVVKALVDEAKEVSEELKKLAEEALKLVEEALKLKKEGGPKEEIEKKLKEALKVVEKIEKEVEKLIKEK
B28: GBRAP_160_4305 (protein)
chain: KEEFEKLKKEIKEIAEEALKMIEGQSKEEQKTIVKVALGEIILLVDESPAVSDELEEKIDEIADEAEAYLDANPDLSEEEIKELLKEAVEKILELIDKES
B29: GBRAP_35_5600 (protein)
chain: DTDEFAVDSLIDQIEALIKLVPEEDVETLAAIGNLLIEDAEELIEDLKNNKEGLERILKALKELIEALEKHHKDNPLMQEVIKRVKELAEEAERKIKEIK

Over roughly 4,500 sequences, “median log2 fold change of GCK-ALFA target abundance (FLAG IP / Myc IP barcode read proportion)” has its median near 0.078; the lowest 2% begin near -0.6. The list shows a part of the results.

Sequence of GABARAP, O95166 (O95166 whole entry, the tested form may be a part): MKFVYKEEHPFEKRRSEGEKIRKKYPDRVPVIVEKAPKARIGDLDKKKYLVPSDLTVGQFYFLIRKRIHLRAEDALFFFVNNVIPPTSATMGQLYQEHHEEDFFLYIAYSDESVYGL

This test deals with GABARAP, O95166. Kind of test: median log2 fold change of GCK-ALFA target abundance (FLAG IP / Myc IP barcode read proportion) (log2 ratio); each designed protein is fused to an ALFA-tag nanobody in HEK293 cells to bring the named protein to FLAG-tagged glucokinase (GCK); Myc marks an untargeted standard; higher = target protein stabilised (more abundant). The settings on record: target protein: 3xFLAG-MCP-GCK-ALFA reporter; HEK293 landing pad (RPLP). The essentials:
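Sequencing of reverse-transcribed, amplified circular RNA barcodes from anti-FLAG and anti-Myc immunoprecipitates provided the readout for an ALFA-nanobody-fused binder library recombined into HEK293 landing-pad cells. Those cells were induced with 2 μg mL^−1 doxycycline, transfected with a plasmid expressing a FLAG-tagged target and a Myc-tagged standard, and lysed after 48 h. Target abundance is the per-binder median log2 ratio of FLAG to Myc barcode read proportions. Only barcodes at a proportion of ≥10^−7 in both replicates and binders with ≥3 barcodes per replicate were kept, with a 10^−6 pseudocount added before the two replicates were pooled.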
As for B1, the “median log2 fold change” value came out at 0.183.

With B2, the “median log2 fold change” value was -0.0128.

In the case of B3, the “median log2 fold change” value came out at 0.227.

Regarding B4, the “median log2 fold change” value turned out to be 0.3.

For the molecule B5, the “median log2 fold change” value came to 0.0877.

B6: the “median log2 fold change” value worked out at 0.174.

As for B7, the “median log2 fold change” value is 0.158.

For the molecule B8, the “median log2 fold change” value is -0.279.

Consider B9, for which the “median log2 fold change” value is -0.0422.

B10: the “median log2 fold change” value came to 0.212.

For B11, the “median log2 fold change” value was 0.179.

Regarding B12, the “median log2 fold change” value was -0.178.

With B13, the “median log2 fold change” value worked out at 0.177.

Consider B14, for which the “median log2 fold change” value is 0.231.

Take B15: the “median log2 fold change” value was 0.15.

Consider B16, for which the “median log2 fold change” value came out at 0.114.

B17: the “median log2 fold change” value worked out at 0.366.

For the molecule B18, the “median log2 fold change” value is -0.0325.

Consider B19, for which the “median log2 fold change” value was 0.312.

Regarding B20, the “median log2 fold change” value is -0.0811.

B21: the “median log2 fold change” value is 0.243.

With B22, the “median log2 fold change” value worked out at 0.21.

Consider B23, for which the “median log2 fold change” value amounted to 0.213.

Turning to B24, the “median log2 fold change” value is 0.0979.

For B25, the “median log2 fold change” value is -0.457.

For the molecule B26, the “median log2 fold change” value is -0.255.

Regarding B27, the “median log2 fold change” value was 0.344.

Regarding B28, the “median log2 fold change” value stood at 0.0202.

As to B29, the “median log2 fold change” value was -0.0627.
